{
  "source": "the supplement of paper PMC6531468",
  "note": "This is one part of the list. Read counts after selection give these values, which scatter widely. Each score is taken over the longer molecules that contain the sequence shown.",
  "data": [
    {"system": "IMP3 KH1-4", "sequence (chain, as listed by the source)": "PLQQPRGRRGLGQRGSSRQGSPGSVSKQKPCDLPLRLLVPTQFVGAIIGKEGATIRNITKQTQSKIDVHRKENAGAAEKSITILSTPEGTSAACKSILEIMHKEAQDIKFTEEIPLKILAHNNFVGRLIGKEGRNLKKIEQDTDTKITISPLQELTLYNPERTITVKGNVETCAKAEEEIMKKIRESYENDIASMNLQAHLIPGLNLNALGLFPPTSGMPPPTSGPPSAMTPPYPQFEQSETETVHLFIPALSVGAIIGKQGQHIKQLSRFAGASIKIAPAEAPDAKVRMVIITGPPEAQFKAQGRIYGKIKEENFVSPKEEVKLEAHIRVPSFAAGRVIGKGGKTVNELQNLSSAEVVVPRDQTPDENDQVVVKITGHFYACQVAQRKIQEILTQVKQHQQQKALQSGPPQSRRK", "test": "6-mer SELEX enrichment z-score vs GST control; higher = more enriched by binding", "settings": "construct: KH1-4 (164-579); SELEX round: R4", "procedure": "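SELEX-seq with GST-tagged IMP3 KH1-4 (Pro164-Lys579) and an N40 RNA pool, round 4. 6-mer z-score of sequence-tag enrichment normalised to the corresponding GST SELEX round; RNA k-mers written as DNA (T for U).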", "values": [
      {"sequence": "GGCTAT", "6-mer SELEX enrichment z-score": 0.329},
      {"sequence": "GCAACC", "6-mer SELEX enrichment z-score": -0.224},
      {"sequence": "GACGCA", "6-mer SELEX enrichment z-score": -0.336},
      {"sequence": "AGTGGC", "6-mer SELEX enrichment z-score": 0.949},
      {"sequence": "ATTAAC", "6-mer SELEX enrichment z-score": 1.45},
      {"sequence": "GGCCTT", "6-mer SELEX enrichment z-score": 0.075},
      {"sequence": "GACGTC", "6-mer SELEX enrichment z-score": -0.867},
      {"sequence": "GCTCTT", "6-mer SELEX enrichment z-score": -0.001},
      {"sequence": "GCGTAG", "6-mer SELEX enrichment z-score": -3.54},
      {"sequence": "ACTTCT", "6-mer SELEX enrichment z-score": 0.515},
      {"sequence": "GCTAAC", "6-mer SELEX enrichment z-score": -0.302},
      {"sequence": "ATACGC", "6-mer SELEX enrichment z-score": 1.09},
      {"sequence": "ACGGGC", "6-mer SELEX enrichment z-score": -1.77},
      {"sequence": "GCACAC", "6-mer SELEX enrichment z-score": 2.47},
      {"sequence": "ATTCTC", "6-mer SELEX enrichment z-score": 0.504},
      {"sequence": "TGTACA", "6-mer SELEX enrichment z-score": 0.597},
      {"sequence": "AGTGCG", "6-mer SELEX enrichment z-score": -0.045},
      {"sequence": "TAGACC", "6-mer SELEX enrichment z-score": -0.705},
      {"sequence": "GAGTGC", "6-mer SELEX enrichment z-score": -0.683},
      {"sequence": "ATCGCC", "6-mer SELEX enrichment z-score": 0.387},
      {"sequence": "TCCAAG", "6-mer SELEX enrichment z-score": -0.926},
      {"sequence": "GTCGGC", "6-mer SELEX enrichment z-score": 2.49},
      {"sequence": "CAAAGC", "6-mer SELEX enrichment z-score": -1.6},
      {"sequence": "AGATAC", "6-mer SELEX enrichment z-score": 0.402},
      {"sequence": "AAGGTT", "6-mer SELEX enrichment z-score": -0.077},
      {"sequence": "TGCCGT", "6-mer SELEX enrichment z-score": -0.271},
      {"sequence": "CCCAGT", "6-mer SELEX enrichment z-score": -0.58},
      {"sequence": "CCGAAC", "6-mer SELEX enrichment z-score": -2.53},
      {"sequence": "TTTACA", "6-mer SELEX enrichment z-score": 1.52},
      {"sequence": "GTGTCT", "6-mer SELEX enrichment z-score": -0.278},
      {"sequence": "TCAGTT", "6-mer SELEX enrichment z-score": 0.515},
      {"sequence": "CCGTTA", "6-mer SELEX enrichment z-score": 0.18},
      {"sequence": "CCGTAG", "6-mer SELEX enrichment z-score": -1.11},
      {"sequence": "ATCTCG", "6-mer SELEX enrichment z-score": -0.855},
      {"sequence": "GACTAA", "6-mer SELEX enrichment z-score": -0.119},
      {"sequence": "CGGACT", "6-mer SELEX enrichment z-score": -0.338},
      {"sequence": "GAGCTG", "6-mer SELEX enrichment z-score": -1.55},
      {"sequence": "CGTATC", "6-mer SELEX enrichment z-score": -0.972},
      {"sequence": "GGAAGA", "6-mer SELEX enrichment z-score": 0.956},
      {"sequence": "AGTCAC", "6-mer SELEX enrichment z-score": 0.474}
    ]},
    {"system": "IMP3 RRM1-2", "sequence (chain, as listed by the source)": "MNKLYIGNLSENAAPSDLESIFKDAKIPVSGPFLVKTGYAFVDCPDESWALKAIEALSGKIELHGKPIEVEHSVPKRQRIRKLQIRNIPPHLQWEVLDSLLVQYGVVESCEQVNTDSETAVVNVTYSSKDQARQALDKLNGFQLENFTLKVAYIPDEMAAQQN", "test": "6-mer SELEX enrichment z-score vs GST control; higher = more enriched by binding", "settings": "construct: RRM1-2 (1-163); SELEX round: R2", "procedure": "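SELEX-seq with GST-tagged IMP3 RRM1-2 (Met1-Asn163) and an N40 RNA pool, round 2. 6-mer enrichment z-score normalised to GST SELEX. RNA written as DNA (T = U).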", "values": [
      {"sequence": "GGCTAT", "6-mer SELEX enrichment z-score": 0.413},
      {"sequence": "GCAACC", "6-mer SELEX enrichment z-score": 0.678},
      {"sequence": "GACGCA", "6-mer SELEX enrichment z-score": -0.051},
      {"sequence": "AGTGGC", "6-mer SELEX enrichment z-score": 0.198},
      {"sequence": "ATTAAC", "6-mer SELEX enrichment z-score": -0.158},
      {"sequence": "GGCCTT", "6-mer SELEX enrichment z-score": 0.25},
      {"sequence": "GACGTC", "6-mer SELEX enrichment z-score": -0.12},
      {"sequence": "GCTCTT", "6-mer SELEX enrichment z-score": 0.553},
      {"sequence": "GCGTAG", "6-mer SELEX enrichment z-score": -0.002},
      {"sequence": "ACTTCT", "6-mer SELEX enrichment z-score": 0.281},
      {"sequence": "GCTAAC", "6-mer SELEX enrichment z-score": -0.116},
      {"sequence": "ATACGC", "6-mer SELEX enrichment z-score": -0.199},
      {"sequence": "ACGGGC", "6-mer SELEX enrichment z-score": -0.039},
      {"sequence": "GCACAC", "6-mer SELEX enrichment z-score": 2},
      {"sequence": "ATTCTC", "6-mer SELEX enrichment z-score": 0.442},
      {"sequence": "TGTACA", "6-mer SELEX enrichment z-score": 0.062},
      {"sequence": "AGTGCG", "6-mer SELEX enrichment z-score": 0.045},
      {"sequence": "TAGACC", "6-mer SELEX enrichment z-score": -0.773},
      {"sequence": "GAGTGC", "6-mer SELEX enrichment z-score": -0.106},
      {"sequence": "ATCGCC", "6-mer SELEX enrichment z-score": -0.234},
      {"sequence": "TCCAAG", "6-mer SELEX enrichment z-score": -0.444},
      {"sequence": "GTCGGC", "6-mer SELEX enrichment z-score": 0.75},
      {"sequence": "CAAAGC", "6-mer SELEX enrichment z-score": -0.33},
      {"sequence": "AGATAC", "6-mer SELEX enrichment z-score": -0.489},
      {"sequence": "AAGGTT", "6-mer SELEX enrichment z-score": -0.094},
      {"sequence": "TGCCGT", "6-mer SELEX enrichment z-score": -0.079},
      {"sequence": "CCCAGT", "6-mer SELEX enrichment z-score": -0.42},
      {"sequence": "CCGAAC", "6-mer SELEX enrichment z-score": -1.22},
      {"sequence": "TTTACA", "6-mer SELEX enrichment z-score": 0.5},
      {"sequence": "GTGTCT", "6-mer SELEX enrichment z-score": 0.431},
      {"sequence": "TCAGTT", "6-mer SELEX enrichment z-score": 0.75},
      {"sequence": "CCGTTA", "6-mer SELEX enrichment z-score": -0.179},
      {"sequence": "CCGTAG", "6-mer SELEX enrichment z-score": -0.217},
      {"sequence": "ATCTCG", "6-mer SELEX enrichment z-score": 0.375},
      {"sequence": "GACTAA", "6-mer SELEX enrichment z-score": -0.757},
      {"sequence": "CGGACT", "6-mer SELEX enrichment z-score": -0.266},
      {"sequence": "GAGCTG", "6-mer SELEX enrichment z-score": -0.112},
      {"sequence": "CGTATC", "6-mer SELEX enrichment z-score": 0.142},
      {"sequence": "GGAAGA", "6-mer SELEX enrichment z-score": -1.08},
      {"sequence": "AGTCAC", "6-mer SELEX enrichment z-score": 0.424}
    ]},
    {"system": "IMP3 KH1-2", "sequence (chain, as listed by the source)": "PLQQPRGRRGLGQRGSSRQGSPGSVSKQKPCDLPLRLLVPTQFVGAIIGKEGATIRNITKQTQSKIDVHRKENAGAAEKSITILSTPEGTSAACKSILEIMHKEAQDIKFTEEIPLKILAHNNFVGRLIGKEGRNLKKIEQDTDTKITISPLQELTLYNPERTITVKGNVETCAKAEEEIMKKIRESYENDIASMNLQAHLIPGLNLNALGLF", "test": "6-mer SELEX enrichment z-score vs GST control; IMP3 is the RNA-binding protein IGF2BP3; higher = more enriched by binding", "settings": "construct: KH1-2 (164-376); SELEX round: R4", "procedure": "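SELEX-seq with GST-tagged IMP3 KH1-2 (Pro164-Phe376) and an N40 RNA pool, round 4 (stringent 300/600 mM KCl washes). 6-mer z-score of sequence-tag enrichment normalised to the corresponding GST SELEX round; RNA k-mers written as DNA (T for U).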", "values": [
      {"sequence": "GGCTAT", "6-mer SELEX enrichment z-score": 0.3},
      {"sequence": "GCAACC", "6-mer SELEX enrichment z-score": -0.358},
      {"sequence": "GACGCA", "6-mer SELEX enrichment z-score": -0.25},
      {"sequence": "AGTGGC", "6-mer SELEX enrichment z-score": 0.694},
      {"sequence": "ATTAAC", "6-mer SELEX enrichment z-score": 1.5},
      {"sequence": "GGCCTT", "6-mer SELEX enrichment z-score": 0.032},
      {"sequence": "GACGTC", "6-mer SELEX enrichment z-score": -0.777},
      {"sequence": "GCTCTT", "6-mer SELEX enrichment z-score": 0.142},
      {"sequence": "GCGTAG", "6-mer SELEX enrichment z-score": -3.09},
      {"sequence": "ACTTCT", "6-mer SELEX enrichment z-score": 0.578},
      {"sequence": "GCTAAC", "6-mer SELEX enrichment z-score": -0.324},
      {"sequence": "ATACGC", "6-mer SELEX enrichment z-score": 0.991},
      {"sequence": "ACGGGC", "6-mer SELEX enrichment z-score": -1.51},
      {"sequence": "GCACAC", "6-mer SELEX enrichment z-score": 1.98},
      {"sequence": "ATTCTC", "6-mer SELEX enrichment z-score": 0.494},
      {"sequence": "TGTACA", "6-mer SELEX enrichment z-score": 0.327},
      {"sequence": "AGTGCG", "6-mer SELEX enrichment z-score": -0.107},
      {"sequence": "TAGACC", "6-mer SELEX enrichment z-score": -0.659},
      {"sequence": "GAGTGC", "6-mer SELEX enrichment z-score": -0.637},
      {"sequence": "ATCGCC", "6-mer SELEX enrichment z-score": 0.173},
      {"sequence": "TCCAAG", "6-mer SELEX enrichment z-score": -0.934},
      {"sequence": "GTCGGC", "6-mer SELEX enrichment z-score": 2.18},
      {"sequence": "CAAAGC", "6-mer SELEX enrichment z-score": -1.57},
      {"sequence": "AGATAC", "6-mer SELEX enrichment z-score": 0.309},
      {"sequence": "AAGGTT", "6-mer SELEX enrichment z-score": -0.17},
      {"sequence": "TGCCGT", "6-mer SELEX enrichment z-score": -0.217},
      {"sequence": "CCCAGT", "6-mer SELEX enrichment z-score": -0.458},
      {"sequence": "CCGAAC", "6-mer SELEX enrichment z-score": -2.09},
      {"sequence": "TTTACA", "6-mer SELEX enrichment z-score": 1.87},
      {"sequence": "GTGTCT", "6-mer SELEX enrichment z-score": -0.14},
      {"sequence": "TCAGTT", "6-mer SELEX enrichment z-score": 0.429},
      {"sequence": "CCGTTA", "6-mer SELEX enrichment z-score": 0.269},
      {"sequence": "CCGTAG", "6-mer SELEX enrichment z-score": -0.991},
      {"sequence": "ATCTCG", "6-mer SELEX enrichment z-score": -0.712},
      {"sequence": "GACTAA", "6-mer SELEX enrichment z-score": -0.211},
      {"sequence": "CGGACT", "6-mer SELEX enrichment z-score": -0.461},
      {"sequence": "GAGCTG", "6-mer SELEX enrichment z-score": -1.41},
      {"sequence": "CGTATC", "6-mer SELEX enrichment z-score": -0.852},
      {"sequence": "GGAAGA", "6-mer SELEX enrichment z-score": 0.707},
      {"sequence": "AGTCAC", "6-mer SELEX enrichment z-score": 0.19}
    ]}
  ]
}
